# PubChem BioAssay AID686979 (National Center for Advancing Translational Sciences (NCATS), 2013)
# The campaign covered roughly 420,000 compounds. About 50,000 (12%) were called active. Inconclusive results, whose numbers are uncertain, are shown with a selection of clear calls. Calls follow the shape of the dose curve; as a rule, active = well fitted inhibition curve with a large enough effect; inconclusive = small, poorly fitted or top-dose-only effect; inactive = flat fitted curve, though single readings scatter. Potencies of inconclusive entries are left out as doubtful fits.
# Assay: qHTS for Inhibitors of human tyrosyl-DNA phosphodiesterase 1 (TDP1): qHTS in cells in presence of CPT; also: nearly all actives have a fitted effect of over 55% in size
# Conditions: chicken DT40 Tdp1-/-;hTDP1 cells + 20 nM CPT, ATP luminescence, 48 h; activity change, negative = growth inhibition: at 46.2 µM (top of the series) unless noted
# How it was run: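 Chicken DT40 Tdp1-/- cells complemented with human TDP1, 400 cells/well, exposed to compounds plus 20 nM camptothecin for at least 48 h at 37 C; viability read as ATP content by CellTiter-Glo luminescence.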
# % is scaled to controls: 0 for no effect and ±100 for the full control effect; potency is read from the fitted curve at half-maximal effect; tags tell the direction and shape of the fitted curve.
Structure (SMILES),Potency,"activity change, negative = growth inhibition"
O=C(C[C@H]1CC[C@@H]2[C@H](COC[C@@H](O)CN2C(=O)C2CC2)O1)NCc1ccccc1Cl,inactive,–
CCN(C(=O)COC(=O)CSc1ccc([N+](=O)[O-])cc1)C1CCS(=O)(=O)C1 (stereo not given),"inconclusive [inhibitor, single point]",–
Cc1ccc(NC(=O)c2ccccc2NC(=O)Cc2ccccc2)cc1,"inconclusive [inhibitor, single point]",–
O=C(NCc1nnc(SCC(=O)N2CCCC2)o1)c1ccc(F)cc1,inactive,–
COc1ccc(-n2c(=O)c(-c3cccs3)nc3cnc(N4CCOCC4)nc32)cc1,–,inconclusive: -36% [inhibitor]
CSCCC(c1nc2ccccc2[nH]1)n1c(-c2cc(C(F)(F)F)cc(C(F)(F)F)c2)nc2ccccc21 (stereo not given),"inconclusive [inhibitor, single point]",–
Cc1cc(=S)c2cccc(C)c2[nH]1,"inconclusive [inhibitor, partial curve]",–
O=C(COC(=O)Cc1ccc(Br)cc1)NCc1ccccc1,inactive,–
COc1ccc(-c2cnc(NCc3ccc(C)cc3)n2C)cc1,"inconclusive [inhibitor, single point]",–
N=c1n(CCN2CCCC2)c2ccccc2n1CC(O)c1ccc(Cl)c(Cl)c1 (stereo not given),active: 5.8 µM,–
Nc1c(-c2ccccn2)cnn1-c1nc(-c2ccc(F)cc2)cs1,"inconclusive [inhibitor, single point]",–
Cc1cccc(CSc2ncc(Cl)c(C(=O)Nc3sc4c(c3C#N)CCCC4)n2)c1,active: 23.1 µM,–
COc1ccc(C(c2c(C)n(C)n(-c3ccccc3)c2=O)c2c(C)n(C)n(-c3ccccc3)c2=O)c(OC)c1OC,–,inconclusive: -26.5% [inhibitor]
CCOC(=O)c1oc2ccccc2c1NC(=O)CCl,active: 10.3 µM,–
Cc1cccc(C)c1OCc1nc2ccccc2c(=O)n1/N=C/c1c[nH]c2ccccc12,active: 20.6 µM,–
O=C(Nc1ccccc1)c1cccc(Cn2cc(C(F)(F)F)ccc2=O)c1,–,inconclusive: -30.1% [inhibitor]
COc1ccccc1CNC(=O)c1nn(-c2ccc(C)cc2)c(=O)c2c1c1ccccc1n2C,"inconclusive [inhibitor, full curve]",–
Fc1c(CSC(=S)N2CCOCC2)cccc1CSC(=S)N1CCOCC1,"inconclusive [inhibitor, single point]",–
CC(C)CNC(=O)COc1ccc2c3c(c(=O)oc2c1)CCC3,inactive,–
O=C(NCc1ccccc1)c1cccc(NC(=O)N2CCSc3ncccc32)c1,"inconclusive [inhibitor, single point]",–
OC(C[n+]1ccccc1)c1ccccc1 (stereo not given),inactive,–
COC(=O)c1ccc(C(=O)NC2CC(C)(C)Cc3c2cnn3-c2ccc(F)cc2)nc1 (stereo not given),active: 1.84 µM,–
NC(=O)COC(=O)c1ccc(Cl)c(S(=O)(=O)N2CCN(c3ccc(F)cc3)CC2)c1,inactive,–
COc1ccc(OC)c(CNc2ncc(-c3ccc(F)cc3)n2C)c1,"inconclusive [inhibitor, single point]",–

Structure (SMILES),Potency,"activity change, negative = growth inhibition"
CC(C)CNC(=O)c1cn(C2CCN(Cc3nc4ccccc4s3)CC2)nn1,inactive,–
COc1ccccc1NC(=O)CSc1oc(-c2cccs2)nc1S(=O)(=O)c1ccc(C)cc1,"inconclusive [inhibitor, single point]",–
Cc1cc(C)c(C)c(S(=O)(=O)N2CCC(C(=O)Nc3ccccc3N3CCOCC3)CC2)c1C,"inconclusive [inhibitor, single point]",–
CC(=O)c1ccn(S(=O)(=O)c2ccccc2)c1,inactive,–
Cc1noc(C)c1S(=O)(=O)N1CCCC(C(=O)N2CCN(C3CCCCC3)CC2)C1 (stereo not given),"inconclusive [inhibitor, partial curve]",–
Cc1ccc(-n2ccnc(SCC(=O)NCCc3ccccc3)c2=O)cc1F,"inconclusive [inhibitor, partial curve, poor fit]",–
CCOc1ccc(NC(=O)CN(C)C(=O)c2cn(-c3ccc(F)cc3)nc2-c2cccc(OC)c2)cc1OCC,"inconclusive [inhibitor, single point]",–
Oc1cc2ccccc2cc1-c1nnc2n1-c1ccccc1SC2,"inconclusive [inhibitor, single point]",–
CCOc1ccc(C(C)=O)cc1Cn1c(=O)oc2ccccc21,"inconclusive [inhibitor, single point]",–
Cc1ccnc(SCC(=O)NC2CC2)n1,inactive,–
COc1ccc(CCNC(=S)Nc2cc(C)ccc2C)cc1,"inconclusive [inhibitor, single point]",–
Cn1cnnc1SC(C(=O)Nc1ccc(F)cc1)c1ccccc1 (stereo not given),inactive,–
O=C(Nc1cccc(Cl)c1)NC1CC2CCC(C1)N2Cc1ccco1 (stereo not given),"inconclusive [inhibitor, single point]",–
CCn1ccc2cc(S(=O)(=O)N3CCC(C(=O)NCc4ccc(OC(C)C)cc4)CC3)ccc21,"inconclusive [inhibitor, single point]",–
O=C(CCCc1nc2ccccc2s1)N1CCN(S(=O)(=O)c2cccs2)CC1,"inconclusive [inhibitor, single point]",–
COc1ncc2nc(-c3cccs3)c(=O)n(-c3ccccc3)c2n1,inactive,–
CCNC(=S)/C(=C(/[O-])c1ccc([N+](=O)[O-])cc1)[n+]1ccccc1,"inconclusive [inhibitor, single point]",–
CNc1snc(C)c1C(=O)OC(C)C(=O)c1ccc(F)cc1 (stereo not given),active: 18.4 µM,–
CC(=O)NC(c1cccc(F)c1)c1nc(-c2ccc(C)c(C)c2)cs1 (stereo not given),"inconclusive [inhibitor, single point]",–
O=[N+]([O-])c1ccc(C2CCCC/C2=N/OCc2ccccc2F)c([N+](=O)[O-])c1 (stereo not given),"inconclusive [inhibitor, single point]",–
Cc1nc(N2CCN(S(=O)(=O)c3ccc(Br)cc3)CC2)c2c(C)c(C)sc2n1,active: 20.6 µM,–
O=C(CN1C(=O)COc2ccc(S(=O)(=O)N3CCCCC3)cc21)NCCc1ccc(Cl)cc1,"inconclusive [inhibitor, single point]",–
CCOc1cc(C(=O)OCc2cc(=O)n3c(C)csc3n2)ccc1OC,"inconclusive [inhibitor, partial curve]",–
NC(=S)NN=C1c2cc(Cl)ccc2-c2c1cc(Cl)cc2[N+](=O)[O-],"inconclusive [inhibitor, single point]",–

Structure (SMILES),Potency,"activity change, negative = growth inhibition"
CCCSc1nnc2c(n1)OC(CC)N(C(C)=O)c1ccccc1-2 (stereo not given),inactive,–
Cc1c(C(=O)N2CCCC2)c(S(=O)(=O)Nc2ccccc2Cl)c(C)n1C,inactive,–
Cc1ccccc1NC(=O)c1ccccc1NC(=O)c1ccccc1F,"inconclusive [inhibitor, single point]",–
CC(=O)Nc1c(O)nc(SCC(=O)Nc2sc3c(c2C#N)CCCCCC3)[nH]c1=O,"inconclusive [inhibitor, partial curve, poor fit]",–
CC(C)(C)OC(=O)N/N=C/c1cc(N=Nc2ccccc2)ccc1O,"inconclusive [inhibitor, single point]",–
COc1ccc(-c2nc3ccc(C(=O)NCc4ccccc4)cc3nc2-c2ccc(OC)cc2)cc1,"inconclusive [inhibitor, single point]",–
CN(C(=O)COC(=O)Cc1ccccc1[N+](=O)[O-])C1CCS(=O)(=O)C1 (stereo not given),inactive,–
COc1ccc(CNc2ccnc(-c3ccccc3Cl)n2)c(OC)c1,"inconclusive [inhibitor, single point]",–
COc1cccc(-n2cnc3sc(C)c(C)c3c2=O)c1,inactive,–
COc1ccccc1-c1cnc(C(O)c2cc(Cl)cc(Cl)c2)[nH]1 (stereo not given),active: 20.6 µM,–
CCOc1ccc(-c2nnn(CC(=O)c3ccc4c(c3)OCCO4)n2)cc1,"inconclusive [inhibitor, single point]",–
COC(=O)C1=CN(c2c(C)cc(C)cc2C)C(N)=C(C#N)C1c1ccccc1 (stereo not given),"inconclusive [inhibitor, single point]",–
CCOc1ccccc1CNC(=O)Cn1nc(C)c2nn(-c3ccc(Cl)cc3)c(C)c2c1=O,"inconclusive [inhibitor, single point]",–
Nc1nc(N)c2[nH]cnc2n1,active: 6.51 µM,–
Cc1ccc2cc3cc(C(=O)NCCN4CCOCC4)oc3nc2c1,inactive,–
Cc1ccc(NC(=O)CN(C)S(=O)(=O)c2cccc3cccnc23)cc1C,"inconclusive [inhibitor, single point]",–
Cc1ccc(Sc2ccc(/C=N/O)cc2[N+](=O)[O-])cc1,"inconclusive [inhibitor, partial curve, poor fit]",–
CN1CCc2c(OCC(=O)N3CCC(Cc4ccccc4)CC3)cccc2C1=O,active: 20.6 µM,–
Cc1cccc(OCC(=O)NCc2ccc3c(c2)CCN3C(=O)c2ccccc2)c1,"inconclusive [inhibitor, single point]",–
Cc1ccc(NC(=O)N2CCCC(C(=O)O)C2)cc1 (stereo not given),"inconclusive [inhibitor, single point]",–
CC1=C(c2ccc(C)c(C)c2)S(=O)(=O)N(Cc2ccc(C(=O)NCc3ccc(C)cc3)cc2)C1=O,"inconclusive [inhibitor, single point]",–
CCc1nc(N)c(C#N)c(-c2cccc3ccccc23)c1C,inactive,–
